Data from paper PMC7819943, “Rice protein-binding microarrays: a tool to detect cis-acting elements near promoter regions in rice”.
The other results are listed elsewhere or left out.

molecular target: T1, OsWOX13 (Oryza sativa, UniProt Q5QMM3 1-267); experiment: protein-binding microarray (RPBM); PBS, 2% BSA, 51.3 ng/ul salmon testes DNA, 50 uM zinc acetate, 200 nM TF, 25 C, 1 h; high values mean tight binding; details: protein: recombinant; tags: N-terminal polyhistidine and DsRed monomer fusion (pET32a); label: CyDye5-dUTP incorporated in the synthesized complementary strand; 3' TTTTT single-stranded linker to array surface; dsDNA, one strand shown
T1 sequence: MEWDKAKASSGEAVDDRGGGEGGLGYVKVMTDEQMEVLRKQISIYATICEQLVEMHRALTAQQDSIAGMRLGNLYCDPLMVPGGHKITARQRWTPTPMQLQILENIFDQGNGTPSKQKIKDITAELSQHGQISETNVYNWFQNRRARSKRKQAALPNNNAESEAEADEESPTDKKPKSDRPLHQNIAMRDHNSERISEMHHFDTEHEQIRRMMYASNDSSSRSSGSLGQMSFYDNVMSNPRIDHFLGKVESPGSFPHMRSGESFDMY
Method in brief: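 The binding signal is fluorescence intensity per array feature (arbitrary units). Readings came from an Axon 4000B scanner after a washed, 2% BSA-blocked, double-stranded custom Agilent array had been incubated for 1 h at 25 °C with 200 nM protein and 50 µM zinc acetate. The protein was a Ni–NTA-purified transcription factor fused N-terminally to polyhistidine and DsRed, expressed in E. coli BL21-CodonPlus.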

Row | Sequence | binding signal
1 | GCCATAAATTTGATCATGTTTAAGATGGTTTATTAGTTTACGGAGTCACCTAGTGCAG | 11000 fluorescence intensity (a.u.)
2 | CCTTAATTAATTAATTAATTACGTGCTATTTATTTCTTGGCGGAGTCACCTAGTGCAG | 55300 fluorescence intensity (a.u.)
3 | TTTCTTAATTGTATTTCTATATGGACTTGATACCCTTCTTCGGAGTCACCTAGTGCAG | 18900 fluorescence intensity (a.u.)
4 | TTCAGTGCCAATCAGGTAATCAGTGTGAGAGTCTTTTCAACGGAGTCACCTAGTGCAG | 11500 fluorescence intensity (a.u.)
5 | ACAAGTTTAATTTCTGCATAATTACAGTTCATCTGAGGTTCGGAGTCACCTAGTGCAG | 18400 fluorescence intensity (a.u.)
6 | ATATATGATTTGGACTTGCTCTAACTATTTTGTTTGAACACGGAGTCACCTAGTGCAG | 14500 fluorescence intensity (a.u.)
7 | CGAAGATGATAATATAAATTTGGTACCTCTAGATATTTGGCGGAGTCACCTAGTGCAG | 6520 fluorescence intensity (a.u.)
8 | TGCTTTAAATTACATGGTTACTTCACCTTGAGAGTTGAGACGGAGTCACCTAGTGCAG | 4920 fluorescence intensity (a.u.)
9 | GATGATGGACGGATAAGATTGTAGCTAATGCCACCCTCTGCGGAGTCACCTAGTGCAG | 31600 fluorescence intensity (a.u.)
10 | TCATTGAAAGATTTCACAAATTATGGCACCACGTGGACCACGGAGTCACCTAGTGCAG | 4490 fluorescence intensity (a.u.)
11 | TGTTTCTTTAATTGCTGCGTTTAATCACTCTCCTCCTCACCGGAGTCACCTAGTGCAG | 8780 fluorescence intensity (a.u.)
12 | GATTTATTGACATCTATATGAATATAGACATTGATAAAAGCGGAGTCACCTAGTGCAG | 8710 fluorescence intensity (a.u.)
13 | GTATAATTTGCTAAATTTTCACAATGGCAGGTGGCATTGTCGGAGTCACCTAGTGCAG | 28100 fluorescence intensity (a.u.)
14 | ATGAGTGATAACTAATTTCTCGTATTGACTCATGAGAGATCGGAGTCACCTAGTGCAG | 12700 fluorescence intensity (a.u.)
15 | TTAAAAGTTAAAGCAATTTAATCAAGTGAATTAATGATGACGGAGTCACCTAGTGCAG | 4150 fluorescence intensity (a.u.)
16 | TTTGATGAATCCTGATTCCACTATCGTCGTCGTCGTCATCCGGAGTCACCTAGTGCAG | 5200 fluorescence intensity (a.u.)
17 | TGGTATTAACGTATGATTGATTGAGTTTTAATTATTAGAACGGAGTCACCTAGTGCAG | 37400 fluorescence intensity (a.u.)
18 | TTTAAATGGGCAATACACTGACGGGCTTTGTAGCTGTTTGCGGAGTCACCTAGTGCAG | 10000 fluorescence intensity (a.u.)
19 | AAGATTGCCAACCAGATTCGCTCTGCTCTCGTAGCCACTTCGGAGTCACCTAGTGCAG | 3620 fluorescence intensity (a.u.)
20 | GAATGGTGATTGCAATCAGAATCTAGGTAGGCCGTCGGTGCGGAGTCACCTAGTGCAG | 51100 fluorescence intensity (a.u.)
21 | GCGGCGTAATTGTAGTCAGCACTACCGATCAGCCCCTATTCGGAGTCACCTAGTGCAG | 5580 fluorescence intensity (a.u.)

Row | Sequence | binding signal
22 | GGAATTGAAATTGGCTTATGCATGCATATGTTCCATTTGACGGAGTCACCTAGTGCAG | 16200 fluorescence intensity (a.u.)
23 | AGTGATAGATCATGTGTGTTCAGTTATGGCCCTCATGGGACGGAGTCACCTAGTGCAG | 14100 fluorescence intensity (a.u.)
24 | CCAGTTGAAATCACGCATTTGACAGCTTAATTTACTCTGTCGGAGTCACCTAGTGCAG | 9540 fluorescence intensity (a.u.)
25 | ACTAATTCTCCTTCCATAATTAAATATACTTCCGTACTTTCGGAGTCACCTAGTGCAG | 6590 fluorescence intensity (a.u.)
26 | TCCAAATTCCTGTAACAGAGTTGACATAAGTAGTTGTTTGCGGAGTCACCTAGTGCAG | 3460 fluorescence intensity (a.u.)
27 | TATTTATAATTAGTATATAAACATGTGATATGATAGATACCGGAGTCACCTAGTGCAG | 15900 fluorescence intensity (a.u.)
28 | TAGTTGAATAGGTAATTAATCATTTTAACATTAATAATGACGGAGTCACCTAGTGCAG | 10800 fluorescence intensity (a.u.)
29 | CTAACACCACAGAATGTTAATTAGCTCACCCGACAACTGGCGGAGTCACCTAGTGCAG | 3280 fluorescence intensity (a.u.)
30 | AACAAACAGATGAAACAAATCAGTGAGATCCATCAAAAGCCGGAGTCACCTAGTGCAG | 7060 fluorescence intensity (a.u.)
31 | ACTAACTCTAAATCATTTATAGTCAATCTAATAGCCAATTCGGAGTCACCTAGTGCAG | 15200 fluorescence intensity (a.u.)
32 | ACTAAATTATAGCAGCCAAGAGCGAATCGCCTCTGGCCTCCGGAGTCACCTAGTGCAG | 6500 fluorescence intensity (a.u.)
33 | AATTCTAATTGGGGAGCATTTAAAGGCTGGGTTTTAGTGGCGGAGTCACCTAGTGCAG | 20100 fluorescence intensity (a.u.)
34 | GTCAATAGTATTGATTGATAATATATACTCGAGATAATTTCGGAGTCACCTAGTGCAG | 35900 fluorescence intensity (a.u.)
35 | ACGTTTATTGATGGTGGACCTAAATCACAAGGAACATCCTCGGAGTCACCTAGTGCAG | 9050 fluorescence intensity (a.u.)
36 | GACTTGATAATTAAACAGGCAGTACCAATATTCCAAGCCACGGAGTCACCTAGTGCAG | 22700 fluorescence intensity (a.u.)
37 | ATTGTGATTTACTTTCGTAGAGATATAATTGAGCCACTATCGGAGTCACCTAGTGCAG | 12500 fluorescence intensity (a.u.)
38 | GAACTTTATTAACTGATAATCAGCCGTGATCAAATTGCACCGGAGTCACCTAGTGCAG | 28000 fluorescence intensity (a.u.)
39 | CTAATTAAACAAGAAGCTGATTAACTTGTCATCGGAGAGACGGAGTCACCTAGTGCAG | 8710 fluorescence intensity (a.u.)
40 | CATAATTTTCGAGCGACTCGCCTAATCAACATATTCATTGCGGAGTCACCTAGTGCAG | 7930 fluorescence intensity (a.u.)
41 | GTCTCAACGATGATAGATTAGCGTGCAACTAATCGGCAGACGGAGTCACCTAGTGCAG | 10100 fluorescence intensity (a.u.)
42 | GCTCCACAATTAATAAATTCCCGTATTATTTAATTCATTCCGGAGTCACCTAGTGCAG | 4140 fluorescence intensity (a.u.)
